Results taken from PubChem BioAssay AID651820 (National Center for Advancing Translational Sciences (NCATS), 2012).
The whole screen tested about 340,000 compounds, of which about 12,000 (3.5%) were called active. This list was built around the results that the source calls inconclusive (neither active nor inactive); the mix of calls is not that of the screen. Calls come from the whole dose curve; as a rule, active = well fitted inhibition curve with a large enough effect; inconclusive = small, poorly fitted or top-dose-only effect, or another doubt; inactive = no such curve, though single readings can be large or run the other way. No potency is given beside an inconclusive call; the fits are too rough.

assay: qHTS Assay for Inhibitors of Hepatitis C Virus (HCV); settings: Huh7.5.1 HCVcc-Cre (HCVcc is cell-culture hepatitis C virus) infection, luciferase reporter, 44 h; series mostly up to 41.8 µM
From the text: Hepatitis C virus (HCV) infects about 200 million people in the world. Many infected people progress to chronic liver disease including cirrhosis with a risk of developing liver cancer. To date, there is no effective vaccine for hepatitis C. Current therapy based on interferon is only effective in about half of the patients and is associated with significant adverse effects. The fraction of people with HCV who can complete a successful treatment is estimated to be no more than 10 percent. Recent development of direct-acting antivirals against HCV, such as protease and polymerase inhibitors, is promising but still requires combination with peginterferon and ribavirin for maximal efficacy. In addition, these agents are associated with high rate of resistance and many have significant side effects. Due to the lack of a culture system for infectious HCV, the search for new HCV drugs has been greatly hampered. […] High-throughput screening (HTS) with an infectious HCV system would cover the complete spectrum of potentially druggable targets in all stages of HCV lifecycle, and would have more biological relevance than other cell-based assays. Moreover, targeting several key processes in the viral life cycle may not only increase antiviral efficacy; more importantly, it may also reduce the capacity of the virus to develop resistance to the compound. The goal of this project is to identify novel HCV inhibitors as new therapies for hepatitis C, using a highly sensitive and specific assay platform which is based on a HCV infectious cell culture system established in the laboratory and adapted for high-throughput HCV drug screen. NIH Chemical Genomics Center [NCGC] NIH Molecular Libraries Probe Centers Network [MLPCN] MLPCN Grant: MH095511 Assay Submitter (PI): Jake Liang, NIDDK
The assay will start with plating 1,000 cells/well in 3 µL volume and culture for 4 h. Then 23 nL of compounds from the library collection will be added to each well, followed by adding 2.5 µL of HCVcc-Cre virus (~ 0.5 moi) and further cultured for 44 h before the luciferase assay. A volume of 4.5 µL luciferase substrates will be added to each well and the plates will be incubated at room temperature for 15 min. and then read for 15 sec. for the luciferase activity
Tags give direction and shape of the fitted curve.

Row | SMILES | Potency
1 | COc1cc(C)c(C(=O)Oc2cc(C)c(C(=O)O)c(O)c2)c(O)c1 | active: 0.794 µM
2 | Cc1cccc(OCc2nc3c4c(ncn3n2)-c2ccccc2CC42CCCC2)c1 | inactive
3 | Cc1ccc(S(=O)(=O)N(C)C)cc1NC(=O)C(C)N(C)CCOc1ccc(Cl)cc1 (stereo not given) | active: 10 µM
4 | CCOC(=O)c1cc(NC(=O)Nc2ccccc2Cl)c(C)nc1C | inconclusive [inhibitor, partial curve]
5 | COc1cccc(Cn2cccc(NC(=O)NC3CCCCC3)c2=O)c1 | inconclusive [inhibitor, single point]
6 | Cc1c(C(=O)Nc2ccc3c(c2)CCC3)cccc1[N+](=O)[O-] | inactive
7 | COc1ccc(S(=O)(=O)Nc2cccc3ccc(O)cc23)cc1 | inactive
8 | N=c1c2c(ncn1Cc1ccco1)Oc1cc(O)ccc1C2c1ccccc1 (stereo not given) | inconclusive [inhibitor, single point]
9 | CNC(=S)N/N=C/c1cn(CCOc2ccccc2OC)c2ccccc12 | inconclusive [inhibitor, partial curve]
10 | Nc1ccc2c(c1)C(=O)c1ccc(Cl)cc1-2 | inconclusive [inhibitor, single point]
11 | CSc1nc(-c2ccccc2)nc(C(Cl)Cl)n1 | active: 3.98 µM
12 | COc1ccc(CCNc2nc(-c3cccnc3)cs2)cc1OC | inconclusive [inhibitor, single point]
13 | CCOC(=O)c1c(C)nc2sc(C(=O)Nc3ccc(C(C)=O)cc3)c(N)c2c1-c1ccc(OC)cc1 | inconclusive [inhibitor, full curve]
14 | CCC(NC(=O)Nc1ncccc1C)(C(F)(F)F)C(F)(F)F | inactive
15 | COc1ccc(S(=O)(=O)NN(C)C)cc1N(C)S(=O)(=O)c1ccc(Cl)cc1 | inactive
16 | COc1ccc(C(=O)O)cc1S(=O)(=O)N(C)CCc1ccccn1 | inconclusive [inhibitor, partial curve]
17 | S=C(NCc1ccc2c(c1)OCO2)NC1CCN(Cc2ccccc2)CC1 | inconclusive [inhibitor, single point]
18 | CC(NC(=O)C12CC3CC(CC(O)(C3)C1)C2)c1ccc(Cl)cc1Cl (stereo not given) | inactive
19 | COc1cc(CNc2ccc(N3CCCC3)cc2)ccc1OCc1ccccc1 | inconclusive [inhibitor, full curve, poor fit]
20 | CCc1ccc(NC(=S)NCC2CCCN2CC)cc1 (stereo not given) | inconclusive [inhibitor, single point]
21 | COc1ccc(CCNC(=O)c2ccc(CNc3nc(=S)[nH]c4ccccc34)cc2)cc1OC | active: 10 µM
22 | CN(C)c1cccc(C(=O)OCCCC(=O)c2ccc(F)cc2)c1 | inconclusive [inhibitor, single point]
23 | C[C@@H](NC(=O)c1nc[nH]c1C(=O)NCCCCCNC(=O)OC(C)(C)C)c1ccccc1 | inconclusive [inhibitor, single point]
24 | CC/C(=N\NC(=O)COc1ccc(Br)cc1)c1ccc(OC)c(OC)c1 | inconclusive [inhibitor, single point]

Row | SMILES | Potency
25 | CC(C)CC(=O)Nc1cc2nn(-c3ccccc3)nc2cc1Cl | inactive
26 | CCOC(=O)c1c(-c2ccccc2)oc2cc(CN(C)C)c(O)c(CN(C)C)c12 | active: 10 µM
27 | COc1cc(C(=S)N2CCCCC2)ccc1OCC(=O)Nc1ccccc1Cl | inconclusive [inhibitor, partial curve]
28 | COC(=O)C1=C(C)N(Cc2ccccc2)C(=NCc2cccc(C(F)(F)F)c2)N[C@H]1c1cccc(F)c1 | inconclusive [inhibitor, single point]
29 | Cc1ccc(NC(=O)c2ccc3c(c2)C(=O)N(c2ccccc2C)C3=O)nc1 | inactive
30 | COc1ccc(CNCc2cn(-c3cccc(F)c3)nc2-c2ccc(C)o2)cc1 | active: 10 µM
31 | O=C(NC(=S)Nc1ccc(S(=O)(=O)NC2CCCCC2)cc1)c1cccs1 | inconclusive [inhibitor, partial curve, poor fit]
32 | CCOC(=O)c1sc(NC(=O)Nc2ccc(F)cc2)nc1C | inconclusive [inhibitor, full curve]
33 | CCCCC(=O)Nc1ccc(C(=O)Nc2ccc(S(=O)(=O)N3CCCC3)cc2)cc1 | inconclusive [inhibitor, full curve, poor fit]
34 | Cc1ccc(/C=C/c2ccc(N(C)C)cc2)[n+](C)c1 | active: 3.16 µM
35 | Cc1cc(-c2ccccc2)nc2cc(C(=O)N(Cc3ccccc3)Cc3ccccc3)nn12 | inconclusive [inhibitor, partial curve]
36 | Cc1cccc(NS(=O)(=O)c2ccc(NC(=O)CN(c3cc([N+](=O)[O-])ccc3C)S(C)(=O)=O)cc2)c1 | inconclusive [inhibitor, single point]
37 | CCNCCNC(=O)c1c(O)c2ccccc2n(CC)c1=O | inconclusive [inhibitor, single point]
38 | Cn1cc(C(=O)c2ccc(Cl)cc2Cl)cc1C(=O)N/N=C(\N)COc1ccc(Cl)cc1Cl | active: 12.6 µM
39 | NC(N)=N/N=C/c1ccc(OCc2ccc(Cl)cc2Cl)cc1 | active: 11.2 µM
40 | Cn1nc(-c2ccc(C(=O)Nc3ccc(F)cc3)cc2)c2ccccc2c1=O | inconclusive [inhibitor, partial curve]
41 | O=C(Nc1ccccn1)Nc1ccccc1[N+](=O)[O-] | inactive
42 | O=C(C[n+]1ccn(-c2ccccc2)c1)c1ccc([N+](=O)[O-])cc1 | inconclusive [inhibitor, single point]
43 | O=C1CCN(CCc2ccccc2)CCN1[C@H](CO)Cc1ccccc1 | active: 2.24 µM
44 | Cc1ccc2nc(SCc3nnc(-c4ccccc4[N+](=O)[O-])o3)c(C#N)cc2c1 | inconclusive [inhibitor, single point]
45 | O/N=C/c1ccc2cccc(OCc3ccccc3)c2n1 | inconclusive [inhibitor, single point]
46 | CCOc1ccc(C(=O)O[C@H]2[C@H](Cc3ccccc3)NS(=O)(=O)[C@H]3C[C@@H]4C=C[C@]23O4)cc1 | inconclusive [inhibitor, single point]
47 | Fc1ccc2cnc(-c3cccnc3)cc2c1 | inconclusive [inhibitor, single point]
48 | COc1ccc(OC)c(NC(=O)c2ccc(NS(C)(=O)=O)cc2)c1 | inconclusive [inhibitor, partial curve, poor fit]

Row | SMILES | Potency
49 | CC(Sc1cccc[n+]1[O-])C(=O)Nc1cccc([N+](=O)[O-])c1 (stereo not given) | inconclusive [inhibitor, partial curve]
50 | CC(=O)OCCCN1c2ccccc2Nc2nnc(-c3ccccc3)cc21 | inconclusive [inhibitor, single point]
51 | CC1CCN(c2ccc3c(c2)S(=O)(=O)c2cccc(C(=O)NC4CCCCC4)c2C3=O)CC1 | inconclusive [inhibitor, full curve, poor fit]
52 | CCCN(CC(=O)Nc1ccccc1OC)C(=O)c1ccc(COc2ccccc2)o1 | inconclusive [inhibitor, partial curve]
53 | CC(=O)c1cn(Cc2ccccc2F)c2ccccc12 | inconclusive [inhibitor, full curve]
54 | CC(C)C(=O)c1c(C(C)C)nn2ccccc12 | inconclusive [inhibitor, single point]
55 | COc1ccc(-c2noc(-c3ccc(Cl)cc3)n2)cc1 | inconclusive [inhibitor, partial curve]
56 | CCc1ccccc1NC(=O)Nc1cccn(Cc2ccccc2F)c1=O | active: 11.2 µM
57 | COc1ccc(CCNC(=O)CCC(=O)NC2CCCC(C)C2C)cc1OC (stereo not given) | inactive
58 | O=C(c1cccc([N+](=O)[O-])c1)N1CCN(C/C=C/c2ccccc2)CC1 | inactive
59 | CCN1C(=O)c2cccc3c(NC(=O)c4ccc(OC)c(OC)c4)ccc1c23 | inconclusive [inhibitor, partial curve]
60 | O=C(Nc1ccc(Cl)cc1)N1CCCN(Cc2ccc(F)cc2)C1 | inconclusive [inhibitor, full curve, poor fit]
61 | Cc1nccn1C(c1ccccc1)c1ccccc1 | inactive
62 | O=C(Nc1ccc(NC(=O)C2CCCCC2)nc1)c1cccs1 | inconclusive [inhibitor, partial curve]
63 | CCOC(=O)NC(NC(=S)Nc1ccc(OC)cc1)C(Cl)(Cl)Cl (stereo not given) | inactive
64 | CC1(C)Cc2cccc(OCC(=O)N3CCN(c4cccc(Cl)c4)CC3)c2O1 | inconclusive [inhibitor, single point]
65 | O=C(NC1CCN(Cc2ccccc2)CC1)c1cn(-c2ccccc2)nc1-c1cccnc1 | inactive
66 | COc1ccccc1NC(=O)c1csc2c1CCCC2 | inconclusive [inhibitor, single point]
67 | O=C(/C=C/c1ccc(OCCCF)cc1)Nc1ccnc(-c2ccncc2)n1 | inconclusive [inhibitor, partial curve]
68 | CN1CCc2nc(SCCOc3ccccc3)c(C#N)cc2C1 | active: 3.55 µM
69 | CC(C)NC(=S)NC(=O)c1ccc(Cl)cc1Cl | inconclusive [inhibitor, single point]
70 | CCCN(CC(=O)Nc1ccccc1C)C(=O)CCCOc1ccc(Br)cc1 | inconclusive [inhibitor, partial curve]
